# Source: the supplement of paper PMC4466236
# Whole data set: some 33,000 sequences, median “E-score (dimensionless, -0.5 to 0.5)” near -0.058, cut for the highest 2% near 0.35. This is one part of the list.
# System: MvaT
# Test: PBM 8-mer E-score (mean of HK and ME arrays) (E-score (dimensionless, -0.5 to 0.5)); higher = stronger relative binding preference; most listed sequences are background and not binding sites
# Experimental: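 Protein binding microarray: GST-tagged full-length MvaT (P. aeruginosa PAO1) bound to two universal double-stranded 60-mer arrays (ME and HK), each with a constant 25-mer primer and a variable 35-mer region covering all 8-mers. The 8-mer E-score (rank-based, range -0.5 to 0.5, >0.45 = specific binding) is the mean of the two arrays.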
row,Sequence,PBM 8-mer E-score
1,CTACTCGC,-0.164
2,CCGACCAG,-0.232
3,TGCTGCAA,-0.0241
4,ATAGGTGA,-0.0882
5,GATTATAC,0.223
6,AAGCCAGG,-0.179
7,ATCCCCGC,-0.131
8,CATGACTC,-0.128
9,CTGGTGCA,-0.0667
10,CAGAGCAA,-0.0754
11,CCGGAACC,-0.114
12,ACCGGAAA,-0.00431
13,GGATTTAA,0.283
14,CTGTGATC,-0.107
15,TCCCCCAA,-0.322
16,TGGCGGAA,-0.0865
17,GCCCATAC,-0.093
18,AAATCTAT,0.134
19,CAGTCCAG,-0.268
20,AGATAAAC,0.169
21,CGTAAGCA,-0.0735
22,CTTGGGGC,-0.289

row,Sequence,PBM 8-mer E-score
1,CGGGCCAG,-0.341
2,GGCCCAAA,-0.203
3,CAGCGCAA,0.0189
4,AAGACATG,0.0346
5,GAATGTGC,-0.0165
6,ATCATGAA,0.192
7,ACTGGACC,-0.127
8,AGGTCGGG,-0.313
9,GACGCTCA,-0.235
10,GCAGAAGC,-0.313
11,ACAGTTAT,0.305
12,AGCTAGCA,-0.178
13,AGATGTTG,0.127
14,ATGAGGGA,-0.14
15,AGTTTAAA,0.378
16,GACCCCAA,-0.184
17,AGCCAGGG,-0.272
18,ACTGGATG,-0.102
19,AATGCAGT,0.0384
20,CCATGTGC,-0.111
21,CCACACCG,-0.0885
22,CCTGCGAC,-0.142

row,Sequence,PBM 8-mer E-score
1,CAGCAGCG,-0.247
2,AGCCTCTC,-0.373
3,CAAGTATC,0.154
4,ACATCGCA,-0.088
5,CATCAGGC,-0.265
6,GCTTCGTA,-0.105
7,CCCCCATA,-0.173
8,GCCCGTTA,0.0647
9,CAAGATGC,-0.222
10,ATATGCTG,0.23
11,GCAATACA,0.0621
12,ACGAGGTG,0.00753
13,AGTCACTA,-0.00735
14,ATAAAATC,0.193
15,GCCCGAGC,-0.162
16,ATCGTTAC,-0.0464
17,ACAATGTA,0.278
18,TCACATAA,0.154
19,ATAGGTTG,0.073
20,ACCACGCT,-0.22
21,GAGAGTAA,0.104
22,AAAACAAG,0.122

row,Sequence,PBM 8-mer E-score
1,CGTGCGAG,-0.0939
2,CGCATTAG,-0.00831
3,CTTACGAC,0.0391
4,AAAGTCAG,0.0529
5,ACGCGTAC,-0.136
6,GATACGCC,-0.0453
7,GCCCCTAA,-0.0882
8,AGCACGTA,-0.0766
9,CAGTGTGG,-0.0125
10,CAAACTGC,0.0485
11,CAGCCTAC,-0.132
12,CCTCGCCG,-0.274
13,CGCGGGCA,-0.192
14,CTCTACGC,-0.0458
15,AAGCGTAT,-0.0148
16,AATTAACT,0.354
17,AAGCGCTA,-0.0549
18,ACGGGCGC,-0.162
19,GGATATAC,0.208
20,CATTCCGC,-0.168
